Reference: ChEMBL document CHEMBL4888484, “Replenishing the malaria drug discovery pipeline: Screening and hit evaluation of the MMV Hit Generation Library 1 (HGL1) against asexual blood stage Plasmodium falciparum ,using a nano luciferase reporter read-out” (2022)
About 540 (0.36%) of roughly 150,000 compounds showed an effect of 50% or more. This is one part of the list.

What follows are molecules tested on Plasmodium falciparum (assay: Primary screen in NF54 nanoGlo assay, in single point, at 2uM, 72h; a lower Z score goes with more inhibition). Settings: timepoint 72 hour.
Assay type: functional, Erythrocyte

First: Cc1ccc(C(=O)N(CC(=O)N2CCc3sccc3[C@@H]2COc2ccccc2C)C(C)C)cc1
Second: Cc1ccc(CN2C(=O)OC(c3cccc(NC(=O)c4cccs4)c3)C2C(=O)NCC(C)C)cc1 (stereo unspecified)
The “% Inhibition” value of the first is higher: -4% for the first, -11% for the second.

Compared with `CN1CCN(c2cc(N3CCC([C@H](O)C(=O)NC4CC4)CC3)ncn2)CC1=O`, `O=C(NC1CC1)C1CN(c2cc(-n3ccnc3)ncn2)C1` is higher in “% Inhibition” value: -32% for the first, 14% for the second.

Compared with `CCOC(=O)c1cnn(CCN2CCOC[C@@H]2C)c1N`, `CC(C)(C)OC(=O)N1CCC(c2c(C(=O)NCCN3CCOCC3)cnn2C(C)(C)C)CC1` is lower in “% Inhibition” value: -6% for the first, -13% for the second.

Compared with `CC(C)c1ccc(N2CCC[C@H](CCC(N)=O)C2)nn1`, `COc1c(C)ncnc1N1CCC[C@H](c2ncc[nH]2)C1` is lower in “% Inhibition” value: 11% for the first, -5% for the second.

Going from `C[C@@H](CN(C)Cc1cnn(C2CCCC2)c1-c1ccccc1)C(=O)O` to `COC[C@@H]1[C@H](C(=O)NC2CCCCC2)CCCN1Cc1ccccc1`, the “% Inhibition” value rises from -9% to -2%.

Going from `CCNC(=O)N1CCCc2cnc(N3CCOCC3)nc21` to `CC1CN(c2ccc(NCc3cnc(N4CCOCC4)nc3)cc2)CC(C)O1` (stereo unspecified), the “% Inhibition” value rises from -16% to -14%.

First: CC(C)C(=O)NCC(=O)Nc1ccc(C(F)(F)F)cc1
Second: COCCNC(=O)c1ccc(NC(=O)N2CC[C@H]2c2ccc(F)cc2)cc1
The “% Inhibition” value of the first is higher: 35% for the first, -6% for the second.

Compared with `CC1CCC(NC2CC(=O)N(C(C)C)C2=O)C(C)C1` (stereo unspecified), `CC(C)(C)CN1C[C@@H](NC2Cc3ccccc3C2)CC1=O` is higher in “% Inhibition” value: -11% for the first, 4% for the second.

Going from `Cc1cccc(CCCn2ccnn2)c1` to `Cc1nc2ccc(CN[C@@H](C)CCn3cccn3)cc2[nH]1`, the “% Inhibition” value falls from -1% to -2%.

Going from `CC/C(C)=C/CCc1ccccc1-c1nnc(C)o1` to `CCc1cnc([C@H](C)NC(=O)c2cccc3nn[nH]c23)s1`, the “% Inhibition” value rises from -15% to -11%.

Compared with `Cc1cccc(NC(=O)C2[C@H]3C=C[C@@]4(O3)C(C(=O)NC3CCCCC3C)N(C3CCCCCC3)C(=O)[C@@H]24)c1` (stereo partly specified), `O=C(CNc1ccccc1N1CCCCC1)Nc1ccc2c(c1)CCC2` is higher in “% Inhibition” value: -9% for the first, -7% for the second.

`Cc1cc2occ(C(=O)NS(=O)(=O)C(C)C)c2cc1C` and `CC(C)(C(=O)N1CCn2c(cc3cc(Cl)ccc32)C1)S(C)(=O)=O` are the same in “% Inhibition” value: -11% for the first, -11% for the second.

Compared with `COc1ccc(-c2cn(CCN3CCOCC3)nn2)cn1`, `O=C(NCc1cccc(COC2CCOCC2)c1)c1c[nH]nc1-c1ccsc1` is higher in “% Inhibition” value: -11% for the first, 2% for the second.

First: Cc1cc2ccccc2n1CC(=O)N1CCC(c2nc3ccccc3o2)CC1
Second: Cc1nc(-c2ccc(NC(=O)c3ccc4ccccc4n3)cc2)co1
The “% Inhibition” value of the first is lower: -11% for the first, 17% for the second.

First: CC(C)c1cnc(-c2cnn(C)c2)s1
Second: COc1cc(-c2onc(C)c2C(=O)NCc2cnc(C)cn2)cc(OC)c1OC
The “% Inhibition” value of the first is higher: -4% for the first, -13% for the second.

First: C=CCNc1nc(-c2ccc(C)c(C)c2)cc(C(F)F)n1
Second: COc1cc(CCc2nc(C)ccc2O)cc(S(=O)(=O)O)c1OC
The “% Inhibition” value of the first is lower: -43% for the first, -15% for the second.

Compared with `CCCN(Cc1c(C)nn(-c2cccc(F)c2)c1N1CCN(CC)CC1)C(=O)Cc1ccc(F)cc1`, `COc1ccc(CN(CC(C)C)CC2CCN(Cc3ccccc3OC)CC2)cc1O` is higher in “% Inhibition” value: -10% for the first, -4% for the second.

Going from `Brc1cccnc1NCc1cccc2cn[nH]c12` to `Cc1cccc(Nc2nc(C)c(C(=O)N(C)Cc3ccccc3)s2)n1`, the “% Inhibition” value falls from 1% to -4%.

First: COc1ccc(-n2nc(C)c3c2NC(=O)C[C@@H]3c2ccc(OCC(C)C)c(OC)c2)nn1
Second: CCn1cnnc1CN1C[C@@H]2NC(=O)CN(CCOC)C(=O)CCc3ccc(OC)c(c3)Oc3cccc(c3)CO[C@H]2C1
The “% Inhibition” value of the first is higher: -5% for the first, -7% for the second.

First: COc1ccsc1C(=O)N(CCC#N)CC(C)(C)C
Second: CC[C@@H](CN(C)C)NC(=O)N(C)Cc1ccnc(C)c1
The “% Inhibition” value of the first is lower: -13% for the first, -3% for the second.

First: CCc1cc(C#N)ccc1NC(=O)N1C[C@H]2CCC[C@@]2(CO)C1
Second: Cc1ccc(NC(=O)N2CC[C@H](N3CCN(C)CC3)[C@H](CCC(=O)O)C2)c(C)c1
The “% Inhibition” value of the first is lower: -16% for the first, 16% for the second.

First: CN(c1ccc(F)c(F)c1)S(=O)(=O)c1ccsc1-c1nc(-c2cccnc2)no1
Second: C[C@@H](Cn1cncn1)NC(=O)Nc1cc(-c2ccco2)ccc1F
The “% Inhibition” value of the first is lower: 3% for the first, 5% for the second.

Going from `CCOc1ccc(OS(=O)(=O)c2ccc3c(c2)C(=O)N(C)C3=O)cc1` to `O=C(OC1C2CC3C(=O)OC1C3C2)c1ccc2ncccc2c1` (stereo unspecified), the “% Inhibition” value rises from -16% to -7%.

Going from `CC1(C)C[C@@H](CNc2ccc3nncn3n2)CCO1` to `CCc1ccc(C(=O)N2CCC(Nc3nccs3)CC2)c(O)c1`, the “% Inhibition” value falls from 6% to -5%.

Going from `O=C(c1c[nH]cn1)N1CC[C@@H](c2cccs2)S(=O)(=O)CC1` to `C[C@H](NC(=O)N1CCC(C2CCOCC2)CC1)c1cscn1`, the “% Inhibition” value falls from 7% to -4%.

Going from `COC1CCC(C)(CNC(=O)N2CCC3(CC2)NC(=O)CO3)CC1` (stereo unspecified) to `Cc1nc(Cn2nnc(NC(=O)NC3CCCCC3C)c2C)no1` (stereo unspecified), the “% Inhibition” value rises from -8% to 6%.

`Cc1c(CN2C[C@@H]3NCCO[C@H]3C2)[nH]c2c(Cl)cccc12` was tested, and the “% Inhibition” value was -4%.

First: Cc1ccc(C(=O)N(CC(=O)N2CCc3sccc3[C@@H]2COc2ccccc2C)C(C)C)cc1
Second: Cc1ccc(CN2C(=O)OC(c3cccc(NC(=O)c4cccs4)c3)C2C(=O)NCC(C)C)cc1 (stereo unspecified)
The Z score of the first is lower: 0.74 for the first, 2.05 for the second.

Compared with `CN1CCN(c2cc(N3CCC([C@H](O)C(=O)NC4CC4)CC3)ncn2)CC1=O`, `O=C(NC1CC1)C1CN(c2cc(-n3ccnc3)ncn2)C1` is lower in Z score: 3.72 for the first, -1.9 for the second.

Compared with `CCOC(=O)c1cnn(CCN2CCOC[C@@H]2C)c1N`, `CC(C)(C)OC(=O)N1CCC(c2c(C(=O)NCCN3CCOCC3)cnn2C(C)(C)C)CC1` is higher in Z score: 1.17 for the first, 1.97 for the second.

Going from `CC(C)c1ccc(N2CCC[C@H](CCC(N)=O)C2)nn1` to `COc1c(C)ncnc1N1CCC[C@H](c2ncc[nH]2)C1`, the Z score rises from -1.25 to 0.64.

Compared with `C[C@@H](CN(C)Cc1cnn(C2CCCC2)c1-c1ccccc1)C(=O)O`, `COC[C@@H]1[C@H](C(=O)NC2CCCCC2)CCCN1Cc1ccccc1` is lower in Z score: 0.94 for the first, 0.27 for the second.

Going from `CCNC(=O)N1CCCc2cnc(N3CCOCC3)nc21` to `CC1CN(c2ccc(NCc3cnc(N4CCOCC4)nc3)cc2)CC(C)O1` (stereo unspecified), the Z score rises from 1.78 to 2.33.

Going from `CC(C)C(=O)NCC(=O)Nc1ccc(C(F)(F)F)cc1` to `COCCNC(=O)c1ccc(NC(=O)N2CC[C@H]2c2ccc(F)cc2)cc1`, the Z score rises from -4.74 to 0.9.

Compared with `CC1CCC(NC2CC(=O)N(C(C)C)C2=O)C(C)C1` (stereo unspecified), `CC(C)(C)CN1C[C@@H](NC2Cc3ccccc3C2)CC1=O` is lower in Z score: 1.45 for the first, -0.49 for the second.

Compared with `Cc1cccc(CCCn2ccnn2)c1`, `Cc1nc2ccc(CN[C@@H](C)CCn3cccn3)cc2[nH]1` is higher in Z score: 0.11 for the first, 0.49 for the second.

Compared with `CC/C(C)=C/CCc1ccccc1-c1nnc(C)o1`, `CCc1cnc([C@H](C)NC(=O)c2cccc3nn[nH]c23)s1` is lower in Z score: 1.74 for the first, 1.48 for the second.

First: Cc1cccc(NC(=O)C2[C@H]3C=C[C@@]4(O3)C(C(=O)NC3CCCCC3C)N(C3CCCCCC3)C(=O)[C@@H]24)c1 (stereo partly specified)
Second: O=C(CNc1ccccc1N1CCCCC1)Nc1ccc2c(c1)CCC2
The Z score of the first is higher: 1.37 for the first, 1.01 for the second.

Compared with `Cc1cc2occ(C(=O)NS(=O)(=O)C(C)C)c2cc1C`, `CC(C)(C(=O)N1CCn2c(cc3cc(Cl)ccc32)C1)S(C)(=O)=O` is higher in Z score: 1.38 for the first, 2.17 for the second.

Going from `COc1ccc(-c2cn(CCN3CCOCC3)nn2)cn1` to `O=C(NCc1cccc(COC2CCOCC2)c1)c1c[nH]nc1-c1ccsc1`, the Z score falls from 1.65 to -0.24.

Compared with `Cc1cc2ccccc2n1CC(=O)N1CCC(c2nc3ccccc3o2)CC1`, `Cc1nc(-c2ccc(NC(=O)c3ccc4ccccc4n3)cc2)co1` is lower in Z score: 1.22 for the first, -2.32 for the second.

Compared with `CC(C)c1cnc(-c2cnn(C)c2)s1`, `COc1cc(-c2onc(C)c2C(=O)NCc2cnc(C)cn2)cc(OC)c1OC` is higher in Z score: 0.64 for the first, 1.88 for the second.

Going from `C=CCNc1nc(-c2ccc(C)c(C)c2)cc(C(F)F)n1` to `COc1cc(CCc2nc(C)ccc2O)cc(S(=O)(=O)O)c1OC`, the Z score falls from 5.04 to 1.76.

Compared with `CCCN(Cc1c(C)nn(-c2cccc(F)c2)c1N1CCN(CC)CC1)C(=O)Cc1ccc(F)cc1`, `COc1ccc(CN(CC(C)C)CC2CCN(Cc3ccccc3OC)CC2)cc1O` is lower in Z score: 0.98 for the first, 0.74 for the second.

First: Brc1cccnc1NCc1cccc2cn[nH]c12
Second: Cc1cccc(Nc2nc(C)c(C(=O)N(C)Cc3ccccc3)s2)n1
The Z score of the first is lower: -0.13 for the first, 0.56 for the second.

First: COc1ccc(-n2nc(C)c3c2NC(=O)C[C@@H]3c2ccc(OCC(C)C)c(OC)c2)nn1
Second: CCn1cnnc1CN1C[C@@H]2NC(=O)CN(CCOC)C(=O)CCc3ccc(OC)c(c3)Oc3cccc(c3)CO[C@H]2C1
The Z score of the first is lower: 0.58 for the first, 0.88 for the second.

First: COc1ccsc1C(=O)N(CCC#N)CC(C)(C)C
Second: CC[C@@H](CN(C)C)NC(=O)N(C)Cc1ccnc(C)c1
The Z score of the first is higher: 1.23 for the first, 0.64 for the second.

Compared with `CCc1cc(C#N)ccc1NC(=O)N1C[C@H]2CCC[C@@]2(CO)C1`, `Cc1ccc(NC(=O)N2CC[C@H](N3CCN(C)CC3)[C@H](CCC(=O)O)C2)c(C)c1` is lower in Z score: 3.04 for the first, -2.12 for the second.

First: CN(c1ccc(F)c(F)c1)S(=O)(=O)c1ccsc1-c1nc(-c2cccnc2)no1
Second: C[C@@H](Cn1cncn1)NC(=O)Nc1cc(-c2ccco2)ccc1F
The Z score of the first is higher: -0.4 for the first, -0.97 for the second.

First: CCOc1ccc(OS(=O)(=O)c2ccc3c(c2)C(=O)N(C)C3=O)cc1
Second: O=C(OC1C2CC3C(=O)OC1C3C2)c1ccc2ncccc2c1 (stereo unspecified)
The Z score of the first is higher: 3.02 for the first, 0.9 for the second.

First: CC1(C)C[C@@H](CNc2ccc3nncn3n2)CCO1
Second: CCc1ccc(C(=O)N2CCC(Nc3nccs3)CC2)c(O)c1
The Z score of the first is lower: -0.76 for the first, 0.72 for the second.

First: O=C(c1c[nH]cn1)N1CC[C@@H](c2cccs2)S(=O)(=O)CC1
Second: C[C@H](NC(=O)N1CCC(C2CCOCC2)CC1)c1cscn1
The Z score of the first is lower: -1.21 for the first, 0.53 for the second.

First: COC1CCC(C)(CNC(=O)N2CCC3(CC2)NC(=O)CO3)CC1 (stereo unspecified)
Second: Cc1nc(Cn2nnc(NC(=O)NC3CCCCC3C)c2C)no1 (stereo unspecified)
The Z score of the first is higher: 1.29 for the first, -1.11 for the second.

`Cc1c(CN2C[C@@H]3NCCO[C@H]3C2)[nH]c2c(Cl)cccc12` showed a Z score of 0.55.
